The results in this text go back to PubChem BioAssay AID1347073 (National Center for Advancing Translational Sciences (NCATS), 2019).

Hit rate of the full screen: of about 45,000 compounds, about 200 (0.44%) were called active. About 7% were inconclusive and are not listed. The call rests on the fitted dose curve; in most records, active means well fitted activation curve with a large enough effect; inconclusive means small, poorly fitted or top-dose-only effect; inactive means no such curve, though single readings can be large or run the other way. The list shows a part of the results.

The test can be described thus: qHTS of TDP-43 Inhibitors: NCGC Sytravon Library Screen. Further: 0% is about no effect; nearly all actives have a fitted effect of over 55% in size. To be noted: yeast TDP-43 toxicity rescue, BacTiter-Glo growth, 24 h; series mostly up to 46.1 µM; growth rescue (activation): at the top concentration. Put shortly:
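TDP-43-expressing yeast, pregrown in raffinose, seeded at OD600 0.02 in galactose medium with compound for 24 hr at 30 deg C. Growth read by BacTiter-Glo luminescence, so rescue of toxicity appears as activation.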
(In general: qHTS replaces the single test concentration by a dilution series.)
`COCCn1c(N)c(Sc2ccccc2)c(=O)[nH]c1=O`: the “growth rescue (activation)” value is inactive: -15.5%.

Turning to `Cc1ccc2cc(C)c(N3CCC(C)CC3)nc2c1`, the “growth rescue (activation)” value was inactive: -6.48%.

With `O=C(CSc1n[nH]c(=O)[nH]c1=O)NC1CC1`, the “growth rescue (activation)” value was inactive: 10.1%.

On to `Cc1cccc(C(=O)OCc2cc(=O)oc3c(C)c(C)ccc23)c1O`, for which the “growth rescue (activation)” value was inactive: -4.56%.

Regarding `Cc1cc(C)nc(N/N=C/c2cccc(Cl)c2)n1`, the “growth rescue (activation)” value is inactive: 3.06%.

With `Cn1c(=O)c2cc(NC(=O)NCc3ccc(Cl)cc3Cl)ccc2n1Cc1ccc(F)cc1`, the “growth rescue (activation)” value was inactive: 15.5%.

Take `Cc1ccc(N(CC(=O)NC2CCCC2)C(=O)CCC(=O)Nc2ccccn2)cc1`: the “growth rescue (activation)” value was inactive: 3.76%.

Turning to `O=S(=O)(c1ccccc1)N1CCC2(CC1)CO2`, the “growth rescue (activation)” value was inactive: 17.3%.

Turning to `N#CCC(=O)N/N=C/c1c(-c2ccccc2)n(-c2ccccc2)c2ccccc12`, the “growth rescue (activation)” value is inactive: 5.47%.

Consider `COc1ccccc1NS(=O)(=O)c1cc(NC(=O)c2cccs2)ccc1N1CCCCC1`, for which the “growth rescue (activation)” value is inactive: 3.99%.

On to `COc1ccc(Cn2c(-c3ccc(C)cc3)nc3c(c(=O)c4ccccc4n3C)c2=O)cc1`, for which the “growth rescue (activation)” value was inactive: 2.69%.

Turning to `Cc1cccc(C)c1OCC1CNC(=O)O1` (centres undefined), the “growth rescue (activation)” value was inactive: 2.61%.

On to `COc1ccc(C(=O)/C=C/c2ccc(OC)c(COc3ccccc3F)c2)cc1`, for which the “growth rescue (activation)” value was inactive: 2.97%.

As for `CC1(C(=O)NS(=O)(=O)C2CC2)CCCN(C(=O)c2cccnc2Oc2ccccc2)C1` (centres undefined), the “growth rescue (activation)” value is inactive: 6.37%.

As for `COC(=O)c1ccc(/C=C2\N=C(SC)SC2=O)cc1`, the “growth rescue (activation)” value is inactive: 1.42%.

Regarding `NC(=O)c1ccc(NC(=O)COC(=O)c2ccc3c(c2)OCCO3)cc1`, the “growth rescue (activation)” value was inactive: 6.82%.

With `COc1cc(OC)cc(C(=O)NCC2CCCN(C(=O)c3csc(C(C)C)n3)C2)c1` (centres undefined), the “growth rescue (activation)” value was inactive: 8.38%.

For `COc1ccc(CC(=O)N/N=C(\C)CC(=O)Nc2cccc(F)c2)cc1`, the “growth rescue (activation)” value is inactive: -1.73%.

Regarding `O=C(CNS(=O)(=O)/C=C/c1ccccc1)OC1CCOC1=O` (centres undefined), the “growth rescue (activation)” value was inactive: -4.47%.

As for `COc1ccc(N(CC(=O)NC2CCCCC2)C(=O)c2snc(C(N)=O)c2N)cc1`, the “growth rescue (activation)” value is inactive: 7.01%.

As for `CCC1Oc2ccccc2N(CC(=O)NC2CCCCC2)C1=O` (centres undefined), the “growth rescue (activation)” value is inactive: -16.5%.

Turning to `Cc1ccc(C)c(Nc2c([N+](=O)[O-])c(=O)oc3ccccc23)c1`, the “growth rescue (activation)” value is inactive: 12.1%.

For `CN(C)c1oc(/C=C/c2ccc(F)cc2)nc1C#N`, the “growth rescue (activation)” value was inactive: 22.7%.

For the compound `O=C(CNC(=O)c1ccccc1)N=Nc1c(O)[nH]c2ccc(Br)cc12`, the “growth rescue (activation)” value is inactive: -22.3%.

In the case of `Cc1ccc(SCC(=O)N2N=CCC2c2ccccc2)cc1` (centres undefined), the “growth rescue (activation)” value was inactive: -4.17%.

As for `CCOC(=O)NC(=O)CSc1ccc2ccccc2n1`, the “growth rescue (activation)” value was inactive: 33%.

As for `O=C(CC(=O)N/N=C/c1cccs1)NCc1ccccc1`, the “growth rescue (activation)” value is inactive: 9.74%.

As to `COc1ccc(C(=O)NC(=S)N2CCN(c3ccc([N+](=O)[O-])cc3)CC2)cc1`, the “growth rescue (activation)” value was inactive: 22.7%.

Take `Cc1ccc(C(=O)Nc2nc(C)c(C(=O)Nc3ccc4c(c3)CCC4)s2)cc1`: the “growth rescue (activation)” value was inactive: 9.02%.

With `O=C(/C=C/c1ccccc1)Nc1ccc(C(=O)N2CCCCC2)cc1`, the “growth rescue (activation)” value is inactive: 5.86%.

Regarding `COc1ccc(S(N)(=O)=O)cc1C(=O)NC1CCCc2ccccc21` (centres undefined), the “growth rescue (activation)” value is inactive: -1.44%.

Consider `COc1cccc(/C=N/NC(=O)c2cc3c(OC)cccc3[nH]2)c1O`, for which the “growth rescue (activation)” value is inactive: 1.8%.

As to `COc1ccc(C2=NN(c3ccc(C=O)cc3)C(c3ccccc3)C2)cc1` (centres undefined), the “growth rescue (activation)” value was inactive: 19.2%.

Consider `COC(=O)c1cc(C(=O)NCC2CCCCC2)cc([N+](=O)[O-])c1`, for which the “growth rescue (activation)” value is inactive: 29%.

Turning to `COc1ccc(NC(C)C(=O)N/N=C/c2ccccc2OCc2cccc(Br)c2)cc1` (centres undefined), the “growth rescue (activation)” value is inactive: 14%.

Consider `CC1(C(=O)O)CCCN(C(=O)/C=C/c2ccccc2)C1` (centres undefined), for which the “growth rescue (activation)” value is inactive: 5.21%.

For `O=C(COC(=O)c1ccccc1NC(=O)c1ccccc1)c1ccc([N+](=O)[O-])cc1`, the “growth rescue (activation)” value is inactive: 5.66%.

As for `CC(C)(C)C1CCC2(CC1)NC(CO)(CO)CO2` (centres undefined), the “growth rescue (activation)” value was inactive: 18.1%.

`CCOc1ncccc1C(=O)N(C)CC(=O)Nc1ccc(C)cc1`: the “growth rescue (activation)” value was inactive: 2.57%.

In the case of `Cc1occc1C(=O)N(C)Cc1nc(-c2ccccc2)no1`, the “growth rescue (activation)” value is inactive: 7.57%.

For the compound `CSc1ccccc1-c1cnc(NC(C)=O)cn1`, the “growth rescue (activation)” value was inactive: 3.93%.

Consider `CN1CCN(c2ncnc3c2ncn3[C@H]2CN(Cc3ccco3)C[C@@H](CO)O2)CC1`, for which the “growth rescue (activation)” value is inactive: 2.45%.

Consider `CCn1c2ccccc2c2cc(CN3CCN(S(=O)(=O)Cc4ccccc4)CC3)ccc21`, for which the “growth rescue (activation)” value is inactive: 4.22%.

Regarding `COc1ccc(N2CCN(C(=O)C3CC(O)CN3S(=O)(=O)c3ccc([N+](=O)[O-])cc3)CC2)cc1` (centres undefined), the “growth rescue (activation)” value was inactive: -8.99%.

As to `COc1ccc(NC(=O)Nc2ccc(C(=O)N3CCOCC3)cc2)c(OC)c1`, the “growth rescue (activation)” value was inactive: 8.26%.

Consider `N#Cc1nc(COc2ccccc2)oc1N1CCCC1`, for which the “growth rescue (activation)” value was inactive: 3.89%.

On to `COc1ccc(C/C(C)=N/NC(=S)Nc2ccc(C)c(C)c2)cc1`, for which the “growth rescue (activation)” value is inactive: 14%.

As for `CCCCNC(=S)NC1CCCC1`, the “growth rescue (activation)” value was inactive: -12%.

With `O=C(NCc1ccccc1)c1cc(C2CCCCN2C(=O)c2cccs2)on1` (centres undefined), the “growth rescue (activation)” value is inactive: 3.7%.

For the compound `CC(O)(c1ccncc1)c1nc(-c2cccc(C(F)(F)F)c2)cs1` (centres undefined), the “growth rescue (activation)” value was inactive: 21.9%.

Consider `C/C(=N\NC(=O)CSc1nc2ccccc2s1)c1ccco1`, for which the “growth rescue (activation)” value was inactive: 1.44%.

Turning to `COc1ccc(CCC(=O)NC(C)C)cc1`, the “growth rescue (activation)” value is inactive: -1.76%.

`COc1ccccc1NS(=O)(=O)c1cccc(C(=O)NNC(=O)c2ccc(Cl)nc2)c1`: the “growth rescue (activation)” value is inactive: 0.502%.

On to `O=C1/C(=C/c2ccc(Br)cc2)Oc2cc(O)ccc21`, for which the “growth rescue (activation)” value is inactive: 8.99%.
